Results published in PubChem BioAssay AID686978 (National Center for Advancing Translational Sciences (NCATS), 2013).
In all, about 420,000 compounds went through this assay and about 64,000 (15%) were called active. The inconclusive results got no clear call from the source; some entries with a clear call stand among them for comparison. The call rests on the fitted dose curve; in most records, active means well fitted inhibition curve with a large enough effect; inconclusive means small, poorly fitted or top-dose-only effect; inactive means flat fitted curve, though single readings scatter. Potencies of inconclusive entries are left out as doubtful fits.

Test: qHTS for Inhibitors of human tyrosyl-DNA phosphodiesterase 1 (TDP1): qHTS in cells in absence of CPT; further: nearly all actives have a fitted effect of over 55% in size
Conditions: DT40 Tdp1-/- hTDP1 cells, no CPT, ATP luminescence, 48 h; activity change, negative = growth inhibition: at 46.2 µM (top of the series) unless noted
Summary of the method: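 DT40 Tdp1-/-;hTDP1 cells, no CPT (DMSO vehicle only), 400 cells/well; compounds pin-transferred; ≥48 hr, 37 °C; CellTiter-Glo 30 min RT dark, luminescence read.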
On the % scale 0 is the no-effect control and ±100 the full control effect; potency means the concentration at half of the fitted maximal effect; tags describe the fitted curve by direction and shape.

Compound	Potency	activity change, negative = growth inhibition
c1ccc(-c2nc(N3CCOCC3)sc2-c2ccccc2)cc1	inconclusive [inhibitor, partial curve]	
COc1ccc(C(=O)Nc2nc3n(n2)C(c2ccc(Cl)cc2)C=C(c2ccccc2)N3)cc1OC (stereo not given)	active: 14.6 µM	
Cc1cc(C)cc(C(=O)NC(=S)Nc2ccc(Cc3ccncc3)cc2)c1	active: 29.1 µM	
Fc1cccc(CSc2ccc(-c3ccco3)nn2)c1	inconclusive [inhibitor, single point]	
CCNC(=S)N1CCN(S(=O)(=O)c2cccc(C(F)(F)F)c2)CC1	inconclusive [inhibitor, partial curve, poor fit]	
Cc1nc(N)nc(N)c1-c1ccc([N+](=O)[O-])cc1	active: 1.46 µM	
COc1cccc(-n2ccnc2SCC(=O)N2CCCc3ccccc32)c1	inconclusive [inhibitor, single point]	
CC(C)(CC(=O)O)CC(=O)N1CCN(c2nc3ccc(Cl)cc3s2)CC1	inactive	
Cc1ccc(NC(=S)NC(NC(=O)C(C)(C)C)C(Cl)(Cl)Cl)c(C)c1 (stereo not given)	inconclusive [inhibitor, partial curve, poor fit]	
CSc1nc2ccc(NC(=O)CS(=O)(=O)c3ccccc3)cc2s1	inconclusive [inhibitor, single point]	
Cc1ccc(OCCn2cc(/C=N/NC(=O)c3ccncc3)c3ccccc32)cc1	active: 23.1 µM	
Cc1ccc(NC(=S)N/N=C/c2c(C)nn(-c3ccccc3)c2N2CCCC2)cc1	inconclusive [inhibitor, partial curve]	
COC(=O)c1ccc2nc(-c3ccc(Cl)cc3)c(Cc3cccc(F)c3)n2c1	active: 23.1 µM	
Cc1ccc(S(=O)(=O)N2CCOCC2)cc1C(=O)NCc1ccc(F)cc1	inactive	
Cc1cccc(NC(=S)NC(NC(=O)c2ccco2)C(Cl)(Cl)Cl)c1 (stereo not given)	inconclusive [inhibitor, single point]	
Cc1ccc(CNC(=O)C2CCCN(c3ncnc4onc(-c5ccc(F)cc5)c34)C2)cc1 (stereo not given)	active: 18.4 µM	
Cc1ccc(CN2CCN(C(=O)c3cccc4ccccc34)CC2)cc1	active: 23.1 µM	
COc1cc([C@@H]2[C@H]3CN(C)CC=C3C(C#N)=C(N)C2(C#N)C#N)cc2c1OCO2	inconclusive [inhibitor, single point]	
COc1ccc2nc(Nc3sc4c(c3C(N)=O)CCCC4)sc2c1	inconclusive [inhibitor, single point]	
O=C(CCNC(=O)c1ccco1)Nc1ccc(Cl)c(C(F)(F)F)c1	inactive	
CN1CC(=O)Nc2cc(C(=O)O)ccc21	inactive	
COc1ccccc1C(=O)NC(=S)Nc1ccc(N2CCN(C(=O)c3ccco3)CC2)cc1	active: 14.6 µM	
Cc1ccc(CN2CCC(Oc3cccc(C(=O)NCc4cccnc4)c3)CC2)o1	inactive	
Cc1ccc(-n2ccc(=O)c(C(=O)Nc3ccc(S(=O)(=O)Nc4nccs4)cc3)n2)cc1	inactive	
Cc1ccc(-n2cc(C(=O)OCc3ccc(F)c(F)c3)c3ccccc3c2=O)cc1	inconclusive [inhibitor, single point]	

Compound	Potency	activity change, negative = growth inhibition
Cc1ccc(C)c(S(=O)(=O)Nc2ccc(C(=O)N3CCOCC3)cc2)c1	inconclusive [inhibitor, single point]	
CCC1CN2CCc3cc(OC)c(OC)cc3C2CC1CC1c2cc(OC)c(OC)cc2CCN1C(=O)C(Cc1c[nH]c2ccccc12)NC(=O)OC(C)(C)C (stereo not given)	active: 5.8 µM	
COc1ccc(/C=C2/N=C(SCC(=O)Nc3cc(C)on3)N(c3ccccc3)C2=O)cc1	inactive	
Cc1c(Cc2ccccc2)c(=O)oc2c(C)c(OCC(=O)N[C@@H](Cc3ccccc3)C(=O)O)ccc12	inactive	
Nc1cc(C2CCCC2)nn1-c1ccccc1	inconclusive [inhibitor, single point]	
CCOc1ccccc1C(=O)Nc1ccc(S(=O)(=O)N(Cc2ccccc2)c2ccccc2)cc1	inconclusive [inhibitor, single point]	
O=C(NCc1ccccc1)c1cc(C2CCCN(S(=O)(=O)c3cccs3)C2)on1 (stereo not given)	inconclusive [inhibitor, partial curve]	
CCOC(=O)c1ccccc1NC(=O)Cn1ccn2nc(-c3ccc(OCC)cc3)cc2c1=O	inactive	
CCOc1ccc(NC(=O)CN2CCN(CC(=O)Nc3ccc(F)cc3F)CC2)cc1	inconclusive [inhibitor, single point]	
O=C(C(=O)N(C1CCCCC1)C1CCCCC1)c1ccccc1	active: 7.31 µM	
COc1cc2c(cc1NC(=O)COC(=O)[C@@H](NC(=O)c1ccccc1)C(C)C)oc1ccccc12	inconclusive [inhibitor, single point]	
CCOC(=O)CN1CCS(=O)(=O)CC1	inactive	
CCCN1Cc2cccc(C(=O)Nc3ccccc3C(=O)OC)c2C1=O	active: 16.4 µM	
Cc1ccccc1N(CC(=O)NCc1ccc2c(c1)OCO2)C(=O)CCC(=O)Nc1ccccn1	inconclusive [inhibitor, single point]	
COc1cc(C(=O)N2CCN(C(=O)COc3cccc(C)c3)CC2)cc(OC)c1OC	inactive	
COc1ccc(N2CCN(C(=O)c3cnn(-c4ccc(OC)cc4)c3C3CCN(C(=O)OC(C)(C)C)CC3)CC2)cc1	inconclusive [inhibitor, single point]	
O=C(CN1C(=O)NC2(CCCC2)C1=O)OCc1ccc(Cl)c(Cl)c1	active: 20.6 µM	
O=C(Nc1ccc2c(c1)OCO2)N1CCN(Cc2ccco2)CC1	inactive	
CCOC(=O)c1c(NC(=O)CSc2nnc(CNc3ccc(C)cc3C)o2)sc(C)c1C	inactive	
O=C(Cn1ccc(C(F)(F)F)n1)N/N=C/c1ccc2c(c1)OCO2	inconclusive [inhibitor, full curve, poor fit]	
CC(=O)Nc1ccc(C(=O)COC(=O)c2cc(C)oc2C)c(F)c1	inconclusive [inhibitor, single point]	
COc1cc2c(NC3CCN(C)CC3)nc(N3CCCN(C)CC3)nc2cc1OCCN(C)C	active: 11.2 µM	
OCCCC1CCCN(Cc2cn[nH]c2-c2ccc(F)cc2F)C1 (stereo not given)	inactive	
Cc1c(N2C(=O)CSC2c2ccc([N+](=O)[O-])cc2)c(=O)n(-c2ccccc2)n1C (stereo not given)	inactive	
O=C(NCc1ccccc1)c1ccc(Cl)cc1	inactive	

Compound	Potency	activity change, negative = growth inhibition
COc1cc2c(cc1OC)CN(C(=O)CCNC(=O)c1ccccc1Cl)CC2	inactive	
CCN(CC(=O)Nc1c(F)cccc1F)C(=O)c1ccc2ccccc2n1	inconclusive [inhibitor, partial curve, poor fit]	
COC(=O)c1c(NC(=O)COc2cccc(C(F)(F)F)c2)sc2c1CCCC2	inconclusive [inhibitor, partial curve, poor fit]	
CCN1CCN(C(=O)c2ccc(Cl)c(S(=O)(=O)N3CCCCCC3)c2)CC1	inconclusive [inhibitor, single point]	
CCOC(=O)N1CCN(S(=O)(=O)c2ccc(C(=O)N(CCCN(C)C)c3nc4ccc(Cl)cc4s3)cc2)CC1	active: 18.4 µM	
CCN(CC)C(=O)[C@H]1C[C@H](CC(=O)NC/C=C(\C)CCC=C(C)C)C(=O)N2CCc3c([nH]c4cc(-c5ccco5)ccc34)[C@]12C	inconclusive [inhibitor, single point]	
NC(=O)c1nsc(C(=O)N(c2ccc3c(c2)OCO3)C(C(=O)NCC2CCCO2)c2ccc(F)cc2)c1N (stereo not given)	inconclusive [inhibitor, partial curve]	
Cc1ccc(NC(=O)Cn2c(=O)oc3ccccc32)cc1	inactive	
Cc1c(C(=O)O)sc2nc3n(c(=O)c12)CCC3		inconclusive: -32.5% [inhibitor]
Cc1nn(CC(=O)NC2CCS(=O)(=O)C2)c(C)c1[N+](=O)[O-] (stereo not given)	inactive	
CC(=O)NNc1cc(C)nc(NS(=O)(=O)c2ccc(C)cc2)n1	inactive	
Cc1cc(NC(=O)Cn2cnc3c(cnn3C(C)(C)C)c2=O)no1	inconclusive [inhibitor, full curve, poor fit]	
C=CCSc1nnc(Cc2cc(=O)[nH]c(=O)[nH]2)n1-c1cc(C)ccc1C	inactive	
c1ccc2cnccc2c1	inactive	
COCCNC(=O)c1ccc2c(c1)S(=O)(=O)c1cc(Cl)ccc1C2=O	inconclusive [inhibitor, single point]	
Cc1ccccc1N1CCN(C(=S)c2ccc([N+](=O)[O-])cc2)CC1	inconclusive [inhibitor, single point]	
COc1ccc(S(=O)(=O)N2c3ccccc3OCC2c2ccccc2)cc1 (stereo not given)	active: 23.1 µM	
Cc1cc(O)ccc1-c1cnc2ccccc2n1	inactive	
CCc1cc(Cn2nc(-c3ccccc3)cc2C(=O)NCCOC)on1	inactive	
COCCNC(=S)Nc1cccc2cnccc12	inactive	
CCCCOc1cccc(C(=O)N2CCN(CCc3ccncc3)CC2)c1	inconclusive [inhibitor, single point]	
O=C(NCc1ccccc1Cl)[C@@H]1CCCN1S(=O)(=O)c1ccc(Cl)cc1	active: 16.4 µM	
Nc1ccc(CCc2ccc(N)cc2)cc1	inactive	
Cc1ccc(C(=O)CSc2nnc(COc3ccccc3)o2)cc1	inactive	
CC(c1ccccc1)N1C(=O)NC(NC(=O)c2cccnc2)(C(F)(F)F)C1=O (stereo not given)	inactive	
